Laboratory results published in PubChem BioAssay AID2546 (National Center for Advancing Translational Sciences (NCATS), 2010).
The campaign covered roughly 310,000 compounds. About 11,000 (3.5%) were called active. Inconclusive means that the source gave no clear call. Such entries were picked first, then a sample of the others. Calls follow the shape of the dose curve; as a rule, active = well fitted inhibition curve with a large enough effect; inconclusive = small, poorly fitted or top-dose-only effect, or effect the other way; inactive = flat fitted curve, though single readings scatter. Potencies of inconclusive entries are left out as doubtful fits.
% is scaled to controls: 0 for no effect and ±100 for the full control effect; potency is read from the fitted curve at half-maximal effect; tags tell the direction and shape of the fitted curve.

Assay: VP16 counterscreen qHTS for inhibitors of ROR gamma transcriptional activity;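 also: Gal4-VP16 expression switched on by copper sulfate through the metallothionein promoter; nearly all actives have a fitted effect of over 50% in size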
Details: Drosophila S2 Gal4-VP16 UAS-luciferase, luminescence, 20 h; activity, negative = inhibition: at 53.6 µM (top of the series)
With `COc1ccccc1N1CC(C(=O)OCC(=O)Nc2c(C)cccc2C)CC1=O` (stereo not given) the “activity, negative = inhibition” value was inactive: -12.4%.
With `Cc1ccsc1/C=C/c1ccc2ccccc2n1` the Potency was inconclusive [inhibitor, single point].
With `CC(C)(C)c1ccc(C(=O)NC(=S)Nc2nc3c(s2)CCCC3)cc1` the Potency was active: 4.47 µM.
In the case of `CCCCn1c(N)c(N(CC)C(=O)c2ccc([N+](=O)[O-])c(C)c2)c(=O)[nH]c1=O`, the Potency is reported as inconclusive [inhibitor, single point].
In the case of `Cc1ncc(CO)c(/C=N/NC(=S)Nc2ccc(F)cc2)c1O`, the Potency is reported as inconclusive [inhibitor, single point].
For `N#Cc1ccc(C(=O)Nc2nc(-c3cccs3)c(C(=O)C(F)(F)F)s2)cc1`, the Potency was active: 3.16 µM.
In the case of `COC(=O)Cc1ccc(NC(=O)c2ccccc2Br)cc1`, the “activity, negative = inhibition” value is reported as inactive: -5.89%.
With `CN(C)c1nc(N/N=C/c2ccccc2O)nc(Nc2ccc(F)cc2)n1` the Potency was active: 1.12 µM.
In the case of `CN1CCC(OC(=O)Cc2ccc(Cl)cc2)CC1`, the “activity, negative = inhibition” value is reported as inactive: 3.54%.
In the case of `C/C(CC(=O)NC1CCCCC1)=N\NC(=O)c1ccc(Br)cc1`, the Potency is reported as active: 11.2 µM.
In the case of `Fc1ccccc1NC(=S)N1CCN(Cc2ccccc2)CC1`, the “activity, negative = inhibition” value is reported as inactive: -10.4%.
In the case of `S=C(Nc1cccc(Cl)c1)Nc1ccccc1Oc1ccccc1`, the Potency is reported as inconclusive [inhibitor, single point].
In the case of `COc1ccc2oc(=O)c(C(=O)Nc3cccc(C)c3)cc2c1`, the Potency is reported as inconclusive [inhibitor, full curve, poor fit].
With `Cc1csc(NC(=O)/C=C/c2ccco2)n1` the Potency was inconclusive [activator, full curve].
With `Cc1nc(-c2ccc(C(=O)Nc3cccc(F)c3)cc2)cs1` the Potency was inconclusive [inhibitor, single point].
In the case of `O=C(Nc1ncccc1O)c1ccc(OCC2CCCO2)cc1` (stereo not given), the Potency is reported as inconclusive [inhibitor, single point].
In the case of `O=c1c(-c2ccc(F)cc2)nc2cnc(N3CCNCC3)nc2n1Cc1ccc(F)cc1`, the Potency is reported as inconclusive [inhibitor, single point].
With `Cc1csc(NC(=O)c2cc(-c3ccco3)nc3ccccc23)n1` the Potency was inconclusive [inhibitor, single point].
With `C=CCSc1cc(C)nc2c(-c3ccccc3)cnn12` the Potency was inconclusive [inhibitor, single point].
In the case of `CCCCCc1c(C)nc(Nc2ccc(F)cc2)[nH]c1=O`, the Potency is reported as inconclusive [inhibitor, single point].
With `COc1ccc(C(=O)Cn2cnc3ccccc3c2=O)c(OC)c1` the Potency was active: 8.91 µM.
For `COc1ccc(N(C)S(=O)(=O)c2cccc(C(=O)NC3=NCCS3)c2)cc1`, the Potency was inconclusive [inhibitor, single point].
For `Cn1nnc2cc(C(=O)NCCC3=CCCCC3)ccc21`, the Potency was inconclusive [inhibitor, full curve].
In the case of `N#C/C(=C\c1ccc(OCCN2CCOCC2)cc1)C(=O)Nc1ccc(S(N)(=O)=O)cc1`, the “activity, negative = inhibition” value is reported as inactive: 8.29%.
For `COc1ccc2c(c1)c(CC(=O)NCc1cc([N+](=O)[O-])ccc1O)c(C)n2C(=O)c1ccc(Cl)cc1`, the Potency was inconclusive [inhibitor, single point].
With `Cc1cc(Nc2cccc(F)c2)nc(NCc2ccccc2)n1` the Potency was inconclusive [inhibitor, single point].
With `CCc1ccccc1NC(=O)c1nnn(CC(=O)Nc2cccc(C)c2C)c1N` the “activity, negative = inhibition” value was inactive: -3.49%.
For `CCOC(=O)c1sc(NNC(=O)c2ccc(F)cc2)nc1C`, the Potency was active: 7.08 µM.
In the case of `CC(=O)Oc1cc(O)c2c(c1)OC(c1ccc(OC(C)=O)c(OC(C)=O)c1)C(OC(C)=O)C2=O` (stereo not given), the “activity, negative = inhibition” value is reported as inactive: 1.63%.
For `O=C(NCCc1ccc(Cl)cc1)c1cc(-c2ccccn2)nc2ccccc12`, the Potency was inconclusive [inhibitor, single point].
With `CC1CCCCN1C(=O)C(=O)c1cn(CC(=O)N2CCCC2)c2ccccc12` (stereo not given) the Potency was inconclusive [inhibitor, partial curve, poor fit].
For `O=c1c2cn[nH]c2[nH]c(=S)n1-c1ccccc1Cl`, the “activity, negative = inhibition” value was inactive: -0.587%.
With `COc1c(C)cccc1C(=O)Nc1ccc(OCC(=O)N2CCOCC2)cc1C` the Potency was inconclusive [inhibitor, partial curve].
With `COc1ccc(/C=N/NC(=O)c2ccoc2C)cc1COc1c(C)cccc1C` the Potency was inconclusive [inhibitor, single point].
For `Brc1cccc(CNc2nc3ccccc3n2CCN2CCOCC2)c1`, the Potency was inconclusive [inhibitor, single point].
In the case of `Cc1ccccc1C(=O)OC1OC(=O)C(Cl)=C1N1CCOCC1` (stereo not given), the Potency is reported as inconclusive [inhibitor, single point].
For `O=C(Nc1ccc2c(c1)OCCO2)c1ccc(Cl)c(S(=O)(=O)N2CCOCC2)c1`, the “activity, negative = inhibition” value was inactive: 16.5%.
With `O=C(Nc1ccc(C(F)(F)F)cc1)c1ccc2ncsc2c1` the Potency was inconclusive [activator, full curve].
In the case of `N#C/C(=C(\O)c1ccco1)c1ccccn1`, the Potency is reported as inconclusive [inhibitor, single point].
For `COc1ccccc1OCC(=O)Nc1ccc(Cl)cc1`, the Potency was inconclusive [activator, full curve, poor fit].
In the case of `Cc1cc(SCC(=O)N/N=C/c2cccnc2)nc2c(C)cccc12`, the “activity, negative = inhibition” value is reported as inactive: -10%.
In the case of `COc1cc([N+](=O)[O-])ccc1N/C=C/C(=O)c1cccs1`, the Potency is reported as active: 8.91 µM.
For `O=C(NCC1CCCO1)C(c1ccncc1)N(Cc1cccs1)C(=O)CN1C(=O)c2ccccc2S1(=O)=O` (stereo not given), the Potency was inconclusive [inhibitor, single point].
With `COc1ccc(NC(=O)C2CCCN2C(=O)Oc2ccccc2)cc1` (stereo not given) the “activity, negative = inhibition” value was inactive: 2.19%.
With `CCN(CC)Cc1cc2[nH]c3c4ccc(Cl)cc4ncc3c2cc1OC` the Potency was inconclusive [inhibitor, single point].
With `Cc1[nH]c(=S)[nH]c(=O)c1CCCO` the “activity, negative = inhibition” value was inactive: -14.5%.
With `CC(=O)Nc1ccc(-c2ccc(NC(C)=O)cc2)cc1` the “activity, negative = inhibition” value was inactive: 0.79%.
With `CCc1ccc(N2CCN(C(=O)c3ccc(OC)c(OC)c3)CC2)cc1` the Potency was inconclusive [inhibitor, single point].
In the case of `COc1ccc(C=C2C=C(C(C)(C)C)C(=O)C(C(C)(C)C)=C2)cc1OC`, the Potency is reported as active: 4.47 µM.
With `CN(C)C(=O)N1CCN(S(=O)(=O)c2ccc3ccccc3c2)CC1` the Potency was inconclusive [activator, single point].
For `O=C(N/N=C/c1ccc(-c2ccc([N+](=O)[O-])cc2)o1)C(O)c1ccccc1` (stereo not given), the Potency was inconclusive [inhibitor, single point].
With `CC(=O)Cc1nsc(NC(=O)c2ccc(Br)o2)n1` the “activity, negative = inhibition” value was inactive: 9.9%.
In the case of `C=CC(=O)N=c1sc2ccccc2n1-c1ccccc1`, the Potency is reported as inconclusive [inhibitor, single point].
In the case of `Cc1[nH]n(-c2ccccc2)c(=O)c1/C=N/NC(=O)c1cccc(F)c1`, the Potency is reported as active: 1.26 µM.
For `CN(C(=S)NC(=O)c1ccccc1Br)C1CCCCC1`, the Potency was active: 3.16 µM.
With `COc1ccc(-c2noc(CN3CCCCC3)n2)cc1OC` the Potency was inconclusive [inhibitor, single point].
In the case of `COc1ccccc1N1C(=O)c2cccc3c(C(=O)O)ccc(c23)C1=O`, the “activity, negative = inhibition” value is reported as inactive: 14.5%.
In the case of `CC(=O)OCC#CCSc1nc2ccccc2n1C`, the Potency is reported as inconclusive [inhibitor, single point].
In the case of `O=C(O)c1ccc2c(c1)C(=O)N([C@@H](Cc1ccc(O)cc1)C(=O)O)C2=O`, the Potency is reported as active: 6.31 µM.
For `O=C(O)c1ccc2c3n(nc2c1)-c1ccc(Cl)cc1CO3`, the Potency was active: 3.16 µM.
For `Cc1ccc2sc(N(CCCN(C)C)C(=O)CCS(=O)(=O)c3ccccc3)nc2c1C`, the Potency was inconclusive [inhibitor, single point].
For `O=C(CSc1nnc(NC(=O)c2ccco2)s1)Nc1ccccc1F`, the Potency was inconclusive [activator, single point].
In the case of `COc1ccc(NC(=S)NC(C)Cc2cccs2)cc1` (stereo not given), the Potency is reported as active: 2.82 µM.
For `CCCN(CCC)c1ccc(C(O)c2nnc(-c3ccccc3)o2)cc1` (stereo not given), the Potency was inconclusive [inhibitor, single point].
For `Cc1ccc(/C=N\NC(=O)c2cc([N+](=O)[O-])cc([N+](=O)[O-])c2)o1`, the Potency was inconclusive [inhibitor, single point].
With `Oc1ccc(/C=N/Nc2nc(-c3cccnc3)nc3ccccc23)c(O)c1` the Potency was active: 11.2 µM.
With `Cc1ccc(C)c2[nH]c(=O)c(C(c3nnnn3C3CCCC3)N3CCOCC3)cc12` (stereo not given) the “activity, negative = inhibition” value was inactive: 8.13%.
In the case of `CC(C)(C)c1cnnn1-c1ccc(C(=O)CCl)cc1`, the Potency is reported as inconclusive [inhibitor, single point].
With `CCc1ccc(S(=O)(=O)Nc2c(C)nn(C)c2C)cc1` the Potency was inconclusive [inhibitor, single point].
In the case of `CCOC(=O)c1ccc(NC(=O)CSc2nc3cccnc3n2C)cc1`, the Potency is reported as inconclusive [inhibitor, single point].
For `CCn1cc(C(=O)O)c(=O)c2cnc(N3CCN(C(=S)NC(=O)c4ccc(Cl)cc4Cl)CC3)nc21`, the Potency was inconclusive [inhibitor, single point].
With `CSc1ccc(NC(=O)Nc2cc(C)ccn2)cc1` the Potency was inconclusive [inhibitor, single point].
With `COc1ccccc1NS(=O)(=O)c1ccc2oc(SC)nc2c1` the “activity, negative = inhibition” value was inactive: -17.8%.
With `COc1ccc(-c2nc3cnc(Oc4ccccc4)nc3n(C3CC3)c2=O)cc1` the “activity, negative = inhibition” value was inactive: -3.6%.
With `O=C(O)CC1NC(=S)N(c2ccccc2)C1=O` (stereo not given) the Potency was inconclusive [inhibitor, single point].
